Test systems include 501Mel; A101D; A2058; A375.
What all share (assay): cell count relative to DMSO control; melanoma cells; higher = more viable cells
Settings in all cases: library dose: standard library concentration; 72 h

This is one part of the list. Repeats are few or missing, and single values can be far off.
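Also: cells treated in 1,536-well plates, then fixed and DAPI-stained, with nuclei counted from automated high-throughput microscope images.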

On to `COc1cc(Nc2ncc(F)c(Nc3ccc4c(n3)NC(=O)C(C)(C)O4)n2)cc(OC)c1OC` [Tamatinib] + O=c1cc(-c2cccc3c2Sc2ccccc2S3)oc(N2CCOCC2)c1 [KU55933] (first compound 2 µM, partner dose 5 µM), for which the cell count was found to be 105% in the assay with 501Mel, 14.2% in the assay with A101D, 82.3% with A2058 and 124% in the assay on A375.
On the same counts, the results for `C[C@@H]1CCN(C(=O)CC#N)C[C@@H]1N(C)c1ncnc2[nH]ccc12` + COc1cc(N2CCC(N3CCN(C)CC3)CC2)ccc1Nc1ncc(Cl)c(Nc2ccccc2S(=O)(=O)C(C)C)n1 [NVP-TAE684] (first compound 5 µM, partner dose 0.4 µM) are 78.7%, 86.7%, 53.6% and 79.6%.
`CC1(C)NC(=O)N(c2ccc([N+](=O)[O-])c(C(F)(F)F)c2)C1=O` [nilutamide] + COc1ccc2c(c1)CCC1C2CCC2(C)C(NCCCCCCN3C(=O)C=CC3=O)CCC12 [U73122] (first compound 5 µM, partner dose 2 µM): the cell count with 501Mel came out at 88%; in the assay on A101D, 80.2%; in the assay with A2058, 89%; in the assay with A375 it was 84.4%.
For `O=c1[nH]nc(Sc2ncc([N+](=O)[O-])s2)n1-c1ccc2c(c1)OCCO2` + Oc1cc(-c2nc(-c3ccccc3)[nH]c2-c2ccncc2)ccc1Cl [L779450] (first compound 1 µM, partner dose 1 µM), in that order: 72.7%, 64%, 112% and 83%.
On the same counts, the results for `C[C@@H]1CCN(C(=O)CC#N)C[C@@H]1N(C)c1ncnc2[nH]ccc12` + COc1cc2ncnc(Nc3ccc(Oc4ccccc4)cc3)c2cc1OC [SrcI1] (first compound 5 µM, partner dose 10 µM) are 92.8%, 76.8%, 85.1% and 150%.
On the same counts, the results for `O=c1[nH]nc(Sc2ncc([N+](=O)[O-])s2)n1-c1ccc2c(c1)OCCO2` + c1cc(-c2cnn3cc(-c4ccc(OCCN5CCCCC5)cc4)cnc23)ccn1 [Dorsomorphin] (first compound 1 µM, partner dose 2 µM) are 49%, 75.2%, 79.6% and 84.1%.
Take `O=c1[nH]nc(Sc2ncc([N+](=O)[O-])s2)n1-c1ccc2c(c1)OCCO2` + O=C(O)C(=O)Nc1sc2c(c1C(=O)O)CCNC2 [TCS401] (first compound 1 µM, partner dose 8.33333 µM): the cell count in the assay with 501Mel was 106%; with A101D, 83.4%; with A2058, 98.2%; in the assay with A375, 157%.
For `Cn1cncc1[C@@](N)(c1ccc(Cl)cc1)c1ccc2c(c1)c(-c1cccc(Cl)c1)cc(=O)n2C` [tipifarnib] + COc1cc2ncnc(Nc3ccc(Oc4ccccc4)cc3)c2cc1OC [SrcI1] (first compound 0.05 µM, partner dose 10 µM), in that order: 55%, 45.7%, 63.4% and 117%.
On the same counts, the results for `O=c1[nH]nc(Sc2ncc([N+](=O)[O-])s2)n1-c1ccc2c(c1)OCCO2` + CCc1ccc(CCOc2ccc(CC3SC(=O)NC3=O)cc2)nc1 [pioglitazone] (first compound 1 µM, partner dose 10 µM) are 81.4%, 93.5%, 86.9% and 107%.
For `Cn1cncc1[C@@](N)(c1ccc(Cl)cc1)c1ccc2c(c1)c(-c1cccc(Cl)c1)cc(=O)n2C` [tipifarnib] + COc1ccc(COc2ccc(Cc3cnc(N)nc3N)cc2OC)cc1 [GW2580] (first compound 0.05 µM, partner dose 5 µM), in that order: 69.8%, 95.7%, 88.6% and 82%.
For `O=C(O)c1ccc(-c2c[nH]c3ncc(-c4ccccc4)cc23)cc1C1CCCC1` + N#Cc1c(O)c2c(-c3ccc(-c4ccccc4O)cc3)csc2[nH]c1=O [A769662] (first compound 0.8 µM, partner dose 10 µM), the cell count came to 103% in the assay with 501Mel, 91.5% in the assay with A101D, 87.3% with A2058 and 94.1% in the assay with A375.
On the same counts, the results for `O=C(Nc1cccc(Cl)c1)Nc1ncc(CCNc2ncnc3ccsc23)s1` + Cc1cc([N+](=O)[O-])ccc1NS(=O)(=O)c1cc(Cl)ccc1Cl [FH535] (first compound 0.004 µM, partner dose 5 µM) are 77.2%, 72.6%, 83.6% and 87.8%.
For `Cn1cncc1[C@@](N)(c1ccc(Cl)cc1)c1ccc2c(c1)c(-c1cccc(Cl)c1)cc(=O)n2C` [tipifarnib] + CCc1ccc(CCOc2ccc(CC3SC(=O)NC3=O)cc2)nc1 [pioglitazone] (first compound 0.05 µM, partner dose 10 µM), in that order: 73.5%, 79.2%, 96.4% and 92.1%.
As to `C[C@@H]1CCN(C(=O)CC#N)C[C@@H]1N(C)c1ncnc2[nH]ccc12` + O=C(Nc1ccccc1)c1cc([N+](=O)[O-])ccc1Cl [GW9662] (first compound 5 µM, partner dose 10 µM), the cell count worked out at 90.4% with 501Mel, 70.8% in the assay with A101D, 105% in the assay on A2058 and 134% in the assay with A375.
On the same counts, the results for `O=C(Nc1cccc(Cl)c1)Nc1ncc(CCNc2ncnc3ccsc23)s1` + Cn1cc(/C=C2\C(=O)Nc3cccnc32)c2ccccc21 [GW441756] (first compound 0.004 µM, partner dose 2 µM) are 99.8%, 80.2%, 124% and 157%.

For the origin of these results see the supplement of paper PMC4604168 (melanoma cell lines).
